# Reference: PubChem BioAssay (Tox21)
# Where “and” joins values, the source holds several entries; their conditions need not be identical. Identical values can stand only once. This list was built around the results that the source calls inconclusive (neither active nor inactive); the mix of calls is not that of the screen. Potencies beside an inconclusive call are fits to weak or partial responses and may not hold up. Some structures have more than one record in an assay (separate samples or runs), and their calls can disagree. Calls of active or inactive are those of the source. Calls come from the whole dose curve; as a rule, active = well fitted cell-killing curve with a large enough effect in the repeat runs; inconclusive = weak or mixed curves, or effect the other way; inactive = flat fitted curve, though single readings scatter. Peptide text beside a SMILES is read from it.
# Test: Caspase-3/7 induction in HepG2 cells by small molecules, qHTS cell viability counter screen (AID 1346981); note: nearly all actives have a fitted effect of over 30% in size
# Settings: CellTiter-Fluor fluorescence, 17 h; series mostly up to 92.4 µM
# Description: U.S. Tox21 Program National Center for Advancing Translational Sciences [NCATS] NIH Chemical Genomics Center [NCGC] U.S. Environmental Protection Agency [EPA] National Institutes of Environmental Health Sciences [NIEHS] National Toxicology Program [NTP] U.S. Food and Drug Administration [FDA] Tox21 Assay Overview: Apoptosis is a process of programmed cell death and plays a central role in the development of multicellular organisms. It is a highly regulated process and induces cell death by activating caspases, which are the members of cysteine aspartic acid-specific protease (caspase) family. Caspases involved in apoptosis are classified by their mechanism of action as initiator caspases (caspase-2, -8, -9 and -10) and executioner caspases (caspase-3, -6, and -7). Inhibition of apoptosis results in number of cancers, autoimmune diseases, inflammatory diseases and viral infection. To identify small molecule compounds that induce apoptosis, a homogeneous, luminescent Caspase-Glo 3/7 assay was used. Wild type HepG2 cells were used to screen Tox21 libraries for identifying caspase-3/7 activity inducers. Also cytotoxicity of the compounds was tested in parallel by measuring the cell viability using CellTiter-Fluor assay system in the same wells.
# Tox21 Assay Protocol Summary: HepG2 cells were dispensed at 2,000 per well in 5uL of culture medium into white solid bottom 1536-well plates (Corning Life Sciences, Corning, NY) using a Multidrop Combi (Thermo Scientific, Waltham, MA) dispenser. The assay plates were incubated at 37 C and 5% CO2 for 5hr, and then 23nL of compounds dissolved in DMSO and positive control were transferred using a Pintool station ([…], San Diego, CA). The assay plates were incubated at 37C and 5% CO2 for 17hr. For cytotoxicity read, after 16hr incubation at 37C, 1uL CellTiter-Fluor reagent (Promega Corporation, Madison, WI) was added to each well of the assay plates using Flying Reagent Dispenser (FRD, Aurora Discovery, San Diego, CA). After 1hr incubation at 37C and 5% CO2, the fluorescence signal was quantified using a ViewLux plate reader (PerkinElmer, Shelton, CT).
# Potency is the fitted concentration of half-maximal effect; tags give direction and shape of the fitted curve.
row,SMILES,Potency
1,COc1ccc(CCN2CCC(Nc3nc4ccccc4n3Cc3ccc(F)cc3)CC2)cc1,active: 8.82 µM and active: 29.8 µM
2,Nc1cc(Cl)c([N+](=O)[O-])cc1O,inconclusive: 60.6 µM [cytotoxic]
3,COc1cc(-c2nc(NC(=O)c3cc4cc(C)cc(C)c4n3CC(=O)O)sc2CCC2CCCCC2)c(OC)cc1Cl,"inconclusive: 25 µM [cytotoxic, full curve]"
4,CC(C)(C)CC(C)(C)c1ccc(OCCOCC[N+](C)(C)Cc2ccccc2)cc1,"active: 61.1 µM and inconclusive: 29.8 µM [cytotoxic, partial curve]"
5,O=Nc1ccc(Nc2ccccc2)cc1,"inconclusive: 68.9 µM [cytotoxic, single point] and inconclusive: 77 µM [cytotoxic, single point]"
6,CN(C[C@@H](CC[N+]12CCC(C3CCCCC3)(CC1)CC2)c1ccc(Cl)c(Cl)c1)C(=O)c1cc(C(F)(F)F)cc(C(F)(F)F)c1,active: 68.6 µM
7,CCCC(=O)c1cc(O)c(O)cc1O,active: 40.9 µM
8,CC(C)(C)c1cc(/C=C2\SC(=N)NC2=O)cc(C(C)(C)C)c1O,"inconclusive: 68.6 µM [cytotoxic, single point]"
9,NC(=O)N/N=C/c1ccc([N+](=O)[O-])o1,"active: 58.4 µM and inconclusive: 26.6 µM [cytotoxic, partial curve]"
10,O=C(N[C@H](CO)[C@H](O)c1ccc([N+](=O)[O-])cc1)C(Cl)Cl,"inconclusive: 24.3 µM [rising, partial curve]"
11,Clc1nc(C(Cl)(Cl)Cl)c(Cl)c(Cl)c1Cl,"inconclusive: 48.6 µM [cytotoxic, partial curve]"
12,CCn1c2ccccc2c2cc(N)ccc21,"inconclusive: 67.9 µM [cytotoxic, single point]"
13,COc1cccc(-c2ccc(/C=C\CN3CCCCCC3)cc2Cl)c1,"inconclusive: 68.3 µM [cytotoxic, single point]"
14,CC(C)(C)NC(=O)[C@@H]1C[C@@H]2CCCC[C@@H]2CN1C[C@@H](O)[C@H](Cc1ccccc1)NC(=O)[C@H](CC(N)=O)NC(=O)c1ccc2ccccc2n1,active: 27.7 µM
15,COC(=O)[C@H](Cc1ccccc1)NC(=O)[C@@H](N)CC(=O)O (H-Asp-Phe-OMe),"inconclusive: 23.1 µM [rising, single point]"
16,C[n+]1cc2c3c(ccc2c2ccc4cc5c(cc4c21)OCO5)OCO3,active: 5.17 µM
17,CCCCCCCCCOC(=O)c1ccc(O)cc1,active: 60.3 µM
18,NC(=O)C1(N2CCCCC2)CCN(CCCN2c3ccccc3CCc3ccc(Cl)cc32)CC1,"inconclusive: 33.5 µM [cytotoxic, partial curve, poor fit]"
19,CCCCCCCCCCCC(=O)NCCCN(C)C,"inconclusive: 68.6 µM [cytotoxic, single point]"
20,O=C(O[C@@H]1Cc2c(O)cc(O)cc2O[C@@H]1c1cc(O)c(O)c(O)c1)c1cc(O)c(O)c(O)c1,active: 54.6 µM and active: 29.5 µM

row,SMILES,Potency
1,COc1cc(/C=C/C(=O)CC(=O)/C=C/c2ccc(O)c(OC)c2)ccc1O,active: 30.8 µM
2,ClC1=C(Cl)C(Cl)(Cl)C(Cl)=C1Cl,"inconclusive: 0.611 µM [cytotoxic, single point]"
3,CCCCNS(=O)(=O)c1ccccc1,"inconclusive: 6.86 µM [cytotoxic, single point]"
4,CN(C)CCOc1ccc(/C(=C(/CCCl)c2ccccc2)c2ccccc2)cc1,active: 57.2 µM
5,CN(C)CCC=C1c2ccccc2CCc2ccccc21,"inconclusive: 48.6 µM [cytotoxic, partial curve] and inconclusive: 27.3 µM [cytotoxic, single point]"
6,O=C(Nc1ccccc1)c1cc(Cl)ccc1O,inconclusive: 17.2 µM [cytotoxic]
7,N/C(=N\N=C\c1ccc(Cl)cc1)N/N=C/c1ccc(Cl)cc1,"inconclusive: 33.5 µM [cytotoxic, single point]"
8,CCCCCCCC/C=C\CCCCCCCC(=O)N(CCO)CCO,"inconclusive: 60.9 µM [cytotoxic, single point]"
9,CC(C)=CCNc1ncnc2c1ncn2[C@@H]1O[C@H](CO)[C@@H](O)[C@H]1O,"inconclusive: 23.7 µM [cytotoxic, partial curve]"
10,CC[C@H](c1ccc(O)cc1)[C@@H](CC)c1ccc(O)cc1,"inconclusive: 48.6 µM [cytotoxic, partial curve]"
11,CCCN(CCC)c1c([N+](=O)[O-])cc(C(F)(F)F)c(N)c1[N+](=O)[O-],active: 54.3 µM
12,NC1(c2ccc(-c3nc4ccn5c(=O)[nH]nc5c4cc3-c3ccccc3)cc2)CCC1,"inconclusive: 23.7 µM [cytotoxic, partial curve]"
13,Nc1nc(N)c2nc(-c3ccccc3)c(N)nc2n1,"inconclusive: 77 µM [cytotoxic, partial curve, poor fit]"
14,Nc1cc(Cl)c(-c2cc(Cl)c(N)cc2Cl)cc1Cl,"inconclusive: 68.5 µM [cytotoxic, single point] and inconclusive: 68.6 µM [cytotoxic]"
15,COc1ccc(-n2nc(CCC(=O)N(C)O)cc2-c2ccc(Cl)cc2)cc1,"inconclusive: 29.8 µM [cytotoxic, partial curve, poor fit]"
16,CCCCC(CC)COC(=O)CC(C(=O)OCC(CC)CCCC)S(=O)(=O)O (stereo not given),"inconclusive: 74.1 µM [cytotoxic, single point] and inconclusive: 68.6 µM [cytotoxic, single point]"
17,CC1=CC(=O)c2ccccc2C1=O,active: 68.6 µM
18,Cc1c(C)c2c(c(C)c1O)CCC(C)(COc1ccc(CC3SC(=O)NC3=O)cc1)O2 (stereo not given),"inconclusive: 68.6 µM [cytotoxic, single point]"
19,COc1ccc2nc(S(=O)Cc3ncc(C)c(OC)c3C)[nH]c2c1 (stereo not given),inconclusive: 67.8 µM [cytotoxic]
20,CCCCCCCOC(=O)c1ccc(O)cc1,"inconclusive: 68.7 µM [cytotoxic, single point]"
